Laboratory results as given in the RNAGym collection of RNA variant scans (doi:10.7554/elife.90254).
Read counts are not given, so values of variants with three or more changes are uncertain.

B1: LINE1-mini (parent)
chain: GGCAGAGCUCAACACAGCGUGGCAAAGUGGCUGUGGCUAGACUGCC

Variants of: B1
Test: self-cleavage, relative activity (ratio to wild type); higher = more cleavage; in vitro, sequencing; the parent is a self-cleaving ribozyme

Variant | self-cleavage
GGCAGAGGUCGGCACACCGUGGCAAAUUGGCCGUGGCUAGACUGCC | 0.01
GGUAGAGCUCAACACAUCGUGGCGAAGUGGCUGUGGCUAGACUGCC | 0.04
GGAAGAGCUCAAUACAGCGUGGGAGAUUGGCUGUGGCUAGACUGCC | 0.23
GGCAGAGCUCAAGACAGCCUAGCAAAGUGUCUGUGGCUAGACUGCC | 0.03
GGCAGAGCACAACACAGCGUGGCAAAGAGGCUGUGGCUACACUGCC | 0.03
GGCAGAGCUCAACACAGCGUGGCAAUGUGGCUGUGACUAGACGGCC | 0
GGCAGAGCUCAACACAGCGUAGCAAAGUGGCGGUGGCUGGACUUCC | 0.02
GGCAGAGCUCAGCACAGCGGAGCAAAGUGGCUGUGGCUCGACUGCC | 0.03
GCCAGGGCUCAACACAGCGUGGCAAAGUGGCUGUGGCUCGACUGCC | 0.01
AGCAGAGCGCAACACACCGUGGCAAAGUGGCUGUGGCUAGACCGCC | 0
GGAAGAGCUCAACACCGCGUGGCAAUAUGGCUGUGGCUAGACUGCC | 0.06
GGCAGAGCUCAACACAGCUUGGCAAAGUGGCUAUGGUUAGCCUGCC | 0.06
GCAAGAGCUCAACCGAGCGUGGCAAAGUUGCAGUGGCUAGACUGCC | 0
GAUAGAGCCCAACACAGCGUGGCAAAGUGGCUGUGGCUAGACUGCC | 0.03
GGCAGAGCUCAGCACAGCGUGGCGAAGUGGAUGUGGCUAGACUGCC | 0.05
GGCUGAGCUCAACACAGCGUGGCAAAGUGGCUGUAGCCAGACGGCC | 0.01
GGAAGAGCACAACACAGCGUGGCAAAGUGGCUGUGGCUUGACUGCC | 0.14
GUCAGAGCUCACCACAGCGUGACAAAGUGGCUGUGGCUAGAAUGCG | 0
UGCAGAGCUCAAUACAGCGUGGCAAAGUGACUGUGGCUAGACUGCC | 0.1

Variant | self-cleavage
GGCAGAGCUCAACACAGCGUGGCAAAGUGGCUGUGUCUAGACUACA | 0.05
GGCAGAGCGCAACACAGCGUGCCUAAGUGGCUGUGGCGAGACUGCC | 0.01
GGCAUAGCUCAAUACAGCGUGGCAAAUUGGGUUUUGCCAGACUGCA | 0.11
GGCAGAGCUCAACACAGCGUGGAAAAGUGGUUGUGGCUAGUCAGCA | 0.02
GGCAGAGCCCAACAGAGCGUGGCAAAAUGGCUGUGGCUAGACUGAC | 0.01
GGCAGAGCUCAACACAGUGUGUCAAAGUGGCUUUGGCUAGACUGCC | 0.04
GGCAUAGCUCAACACAGCGUGGCAUAGUGGCUGGGGCUAGACUGCC | 0.05
GGCAGAGCGUUACACAGCUUGGCAAAGUGGCUGUGGCUAGAGUGCC | 0.02
GCCAGAGCUCAACACAGCGUGGCAACUUGGCUGUGGCUAGACUGCC | 0
GACAGAGCUCAACGCAGCCUAGCAAAGUGGCUGUGGGUAGACUGCC | 0.03
GACAGAGCUCAACAAAGCGUGGCAAAGUGACUGUGGCUAGGCUGGC | 0.26
GGCAGAGCGCAACACAGCGUGACAAAGUGGCUGGUGCUAGACUGCC | 0.02
GGAAGAGCUCAACACAGCGUGGCAAAGUAGCUGUGUCUAGACUGAC | 0.13
GUCAGAGCUAAACACAGCCUGGCAAAGUGGCUGUGGCUAGAGUGCC | 0.01
GGCAGAGCUCAACACAGCGUGGACAAGUGGCUGUGGCUAUACUGCC | 0.27
GGUAGAGCUCAGCACAGCGUGGGAAAGUGGCUGUGGCUAGACUGCC | 0.03
GACAGAGCACAACACAGCGUGGCAAAGUGGUCGUGGCUAGACUGCC | 0.25
GGCAAAGCUCAACACACCGUGGCAAAGUGGUUGUGGCUAGACUGCC | 0.05
GGCACAGCUCAACACUGCGUGGAAAAGUGGCUGCGGCUAGACUGCC | 0.92

Variant | self-cleavage
GUCAGAGUUCACCAAAGCGUGGCAAAGUGGCAGUGGCUAGAUUGCC | 0
GGCAGAGCUCAACACAGAGUGGGAAAGUGGCAGUGGCUAGACUGCC | 0.11
GGCAGAGCUCACCUCAGCGGGGCACAGGGGCUGUGGCUAGACUGCC | 0.01
CGCAGAGCUCCACACAGCGUGGUAAAGUGGCUGUGGCUAGACUGCC | 0.02
GCCAGACCUCAACACAGCGUGGCAAAGUGGCUGUGGCUAGACUGCU | 0.1
AGCAGACCUCAACACAGCGUGGAAGAGUGGCUGUGGCUAGACUGCC | 0.12
UGCAGAGGUCAGCACAGCGUGGCAGCGUGGCUGUGGCUAGACUAAC | 0.01
GGUAGAGCUCAACACAGUGUGGCAAAGUGGCUGUGGCUAUACUGCC | 0.04
GGCAGAGCUCAACACAGCGUUGCAAAGUGGUUGUGGCAAGACUCCC | 0.09
GGCAGAGUUCAACACAUCGUGGCAAAGUGGCUGUGGCUAGACUGUC | 0.09
GGCAGAGCUCAACUCAGCGUUGCAACGUGGCUGUGGAUAGACUGCC | 0.26
GCCAGAGCUCAACACACCUUGGCAAAGUGGCUGUGGCCAGACUGCC | 0.01
GGCAGAGCUCAACACAGCCUGGCAAAGUGCCUGUGGCUAGAAUGCC | 0.3
GGCAGACCUCAACACAGCGUUGCAAAGUGGCUGUGGCUAGAUUGCA | 0.11
GGCAGAGCUCAACACAGCGUGGCAAGGCGGCUGUGGCUAGUCUGCC | 0.21
GGCAGCGCUCAACACAACGUGGCAUAGUGGUUGUGGCUAGACUGCC | 0.12
GGCAGAGCUCAACACAGCGUGGAACUGUGGCUGUGGCUAGAGUGCC | 0.07
GGCAGAGCUCAACACGGCGUGGAAAAAUGGCUGUGGCUAGACUGCC | 0.67
